Assay results from the supplement of paper PMC9446081.
The whole screen tested about 39,000 compounds, of which about 220 (0.56%) showed activity. This is one part of the list.

test system: Escherichia coli K-12 BW25113; assay: relative growth (OD600 normalised to plate interquartile mean) (fraction); higher = less growth inhibition, active = 0.2 or less; details: 50 µM; LB; incubation time: overnight (16-24 h)
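Further: static incubation at 37 °C against the wild-type strain, values averaged over two biological replicates.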

Row | SMILES | relative growth
1 | Cc1noc(C)c1S(=O)(=O)Nc1ccc2c(c1)C(=O)N([C@@H](C)CO)C[C@H](C)[C@@H](CN(C)S(=O)(=O)c1ccc(F)cc1)O2 | inactive: 1.02
2 | NC(=O)CNC(=O)c1cccc(Cl)c1 | inactive: 1
3 | C[C@@H]1CN([C@@H](C)CO)C(=O)c2cc(NC(=O)CCCN(C)C)ccc2O[C@@H](C)CCCCO[C@@H]1CN(C)CC1CCCCC1 | inactive: 0.992
4 | C[C@@H]1CN([C@@H](C)CO)C(=O)CCCn2nncc2CO[C@H]1CN(C)C(=O)Nc1ccc(N2CCCCC2)cc1 | inactive: 1.03
5 | CN1N=C(C(N)=O)CCC1=O | inactive: 1.01
6 | C[C@@H]1CCCCO[C@H](CN(C)S(=O)(=O)c2ccc(Cl)cc2)[C@@H](C)CN([C@H](C)CO)C(=O)c2cc(NC(=O)C3CCCCC3)ccc2O1 | inactive: 0.989
7 | C[C@@H]1CN([C@@H](C)CO)C(=O)c2cccc(NC(=O)c3nc4ccccc4s3)c2O[C@H]1CN(C)Cc1ccc(Cl)c(Cl)c1 | inactive: 1.02
8 | CC(C)(C)[C@H]1C=C(C(=O)N2CCN(Cc3ccccc3)CC2)O[C@@H](OCc2ccc(COC(=O)NCCCCCC(=O)NO)cc2)C1 | inactive: 0.979
9 | COc1ccc([Si](C)(C)[C@@H]2[C@@H](CC(=O)N3Cc4ccccc4C[C@H]3CO)O[C@]3(C(=O)N(Cc4ccc(I)cc4)c4ccccc43)[C@H]2C)cc1 | inactive: 1.02
10 | C[C@H](CO)N1C[C@H](C)[C@@H](CN(C)C(=O)Nc2ccc(F)cc2)Oc2ccc(NC(=O)Nc3ccc(C(F)(F)F)cc3)cc2CC1=O | inactive: 1.01
11 | C[C@H](CO)N1C[C@H](C)[C@@H](CN(C)CC2CCCCC2)Oc2c(NC(=O)CCCCCC(=O)Nc3ccccc3N)cccc2C1=O | inactive: 0.999
12 | O=C1N[C@@H](c2ccccc2)COCc2cn(nn2)CC[C@H](Cc2ccc(C(F)(F)F)cc2)C(=O)N[C@@H](c2ccccc2)COCc2cn(nn2)CC[C@@H]1Cc1ccc(C(F)(F)F)cc1 | inactive: 1.02
13 | COCC(=O)Nc1ccc2c(c1)OC[C@@H](C)N(C(=O)Cc1cccnc1)C[C@H](C)[C@@H](OC)CN(C)C2=O | inactive: 0.985
14 | C[C@H]1CCCCO[C@@H](CN(C)Cc2ccncc2)[C@@H](C)CN([C@@H](C)CO)C(=O)c2cc(NC(=O)Nc3ccc4c(c3)OCO4)ccc2O1 | inactive: 0.999
15 | Cc1noc(C)c1S(=O)(=O)Nc1ccc2c(c1)C(=O)N([C@H](C)CO)C[C@H](C)[C@H](CN(C)C(=O)Nc1ccc(C(F)(F)F)cc1)OCCCC[C@@H](C)O2 | inactive: 0.995
16 | Cc1noc(C)c1NC(=O)Nc1ccc2c(c1)C(=O)N([C@@H](C)CO)C[C@H](C)[C@@H](CN(C)C(=O)Nc1ccc(F)cc1)OCCCC[C@@H](C)O2 | inactive: 0.993
17 | C[C@H](CO)N1C[C@H](C)[C@@H](CN(C)S(=O)(=O)c2ccccc2)Oc2ccc(NS(=O)(=O)c3ccccc3)cc2CC1=O | inactive: 1.01
18 | COc1ccc(S(=O)(=O)Nc2ccc3c(c2)CC(=O)N([C@H](C)CO)C[C@@H](C)[C@@H](CN(C)S(C)(=O)=O)O3)cc1 | inactive: 0.904
19 | CC(=CC(=O)OCCCCCCCCC(=O)O)CC1OCC(CC2OC2C(C)C(C)O)C(O)C1O (centres undefined) | inactive: 0.526
20 | C[C@@H]1CN([C@@H](C)CO)C(=O)Cc2cc(NC(=O)CCCCCC(=O)Nc3ccccc3N)ccc2O[C@H]1CN(C)Cc1ccc(C(F)(F)F)cc1 | inactive: 1.02

Row | SMILES | relative growth
21 | CC(C)(Oc1ccc(CCNC(=O)c2ccc(Cl)cc2)cc1)C(=O)O | inactive: 1.02
22 | CN1CCN(C(=O)[C@H]2[C@H](CO)[C@H]3Cn4c(cccc4=O)[C@@H]2N3S(=O)(=O)c2ccccc2F)CC1 | inactive: 1.02
23 | COC(=O)C[C@@H]1CC[C@@H]2[C@H](COC[C@@H](O)CN2S(=O)(=O)c2cn(C)cn2)O1 | inactive: 0.993
24 | NCCCCC(=O)O | inactive: 0.976
25 | CC(=O)N(C)C[C@@H]1Oc2ncc(C#CC(C)(C)O)cc2C(=O)N([C@@H](C)CO)C[C@H]1C | inactive: 1.01
26 | C[C@@H]1CCCCO[C@@H](CN(C)C(=O)CCC(F)(F)F)[C@H](C)CN([C@H](C)CO)C(=O)c2cc(NC(=O)c3ccccc3)ccc2O1 | inactive: 0.987
27 | Cc1ccc(S(=O)(=O)N(C)C[C@@H]2OCCCC[C@@H](C)Oc3ccc(NC(=O)Nc4c(C)noc4C)cc3C(=O)N([C@@H](C)CO)C[C@H]2C)cc1 | inactive: 0.978
28 | NCCc1ccc(O)c(O)c1 | inactive: 0.99
29 | C[C@@H]1CN([C@H](C)CO)S(=O)(=O)c2ccc(C3=CCCC3)cc2O[C@H]1CN(C)C(=O)C1CCOCC1 | inactive: 1.01
30 | Cc1noc(C)c1NC(=O)Nc1ccc2c(c1)C(=O)N([C@H](C)CO)C[C@H](C)[C@@H](CN(C)Cc1ccc3c(c1)OCO3)OCCCC[C@@H](C)O2 | inactive: 1.03
31 | C[C@@H]1CN([C@H](C)CO)C(=O)c2cccc(NS(=O)(=O)c3ccccc3)c2O[C@@H]1CN(C)S(=O)(=O)c1cccs1 | inactive: 0.999
32 | C[C@@H]1CN([C@H](C)CO)C(=O)c2cc(NC(=O)Nc3ccc(F)cc3)ccc2O[C@@H]1CN(C)CC1CCCCC1 | inactive: 0.987
33 | CC(C)NC(=O)N(C)C[C@@H]1OCCCC[C@@H](C)Oc2ccc(NC(=O)C3CCCCC3)cc2C(=O)N([C@H](C)CO)C[C@@H]1C | inactive: 0.996
34 | C[C@H]1CN([C@@H](C)CO)C(=O)c2cc(NC(=O)Nc3ccc(F)cc3)ccc2O[C@H]1CN(C)Cc1ccc(Oc2ccccc2)cc1 | inactive: 0.982
35 | C[C@@H]1CCCCO[C@@H](CN(C)CC2CCCCC2)[C@H](C)CN([C@@H](C)CO)C(=O)c2cc(NC(=O)Nc3ccc(C(F)(F)F)cc3)ccc2O1 | inactive: 1.02
36 | C[C@@H]1CN([C@H](C)CO)C(=O)c2cc(NC(=O)Nc3ccc(C(F)(F)F)cc3)ccc2O[C@H]1CN(C)Cc1ccc(C(F)(F)F)cc1 | inactive: 1.02
37 | Cc1ccc(S(=O)(=O)N(C)C[C@@H]2Oc3ccc(NC(=O)NC(C)C)cc3CC(=O)N([C@H](C)CO)C[C@H]2C)cc1 | inactive: 1.03
38 | O=C(C[C@H]1CC[C@H]2[C@@H](COC[C@@H](O)CN2C(=O)Nc2cccc(Cl)c2)O1)NCc1ccccc1F | inactive: 1.02
39 | CN1CCN(C(=O)C[C@@H]2CC[C@@H]3[C@H](COC[C@H](O)CN3C(=O)C3CCOCC3)O2)CC1 | inactive: 0.99
40 | C[C@H]1CN([C@@H](C)CO)C(=O)c2cccc(NS(=O)(=O)c3ccccc3)c2O[C@H]1CN(C)S(=O)(=O)c1ccc(F)cc1 | inactive: 0.982

Row | SMILES | relative growth
41 | C[C@@H]1CN([C@@H](C)CO)C(=O)c2cc(NS(=O)(=O)c3ccccc3)ccc2O[C@@H](C)CCCCO[C@H]1CN(C)C(=O)Nc1cccc2ccccc12 | inactive: 1.02
42 | N[C@H]1CCCN(Cc2ccc(F)cc2)C1 | inactive: 1.03
43 | C=CCn1c(=O)c2c(nc(NCCO)n2C)n(C)c1=O | inactive: 0.994
44 | CCNC(=O)C[C@@H]1CC[C@@H](NC(=O)C2CC2)[C@H](CO)O1 | inactive: 1.05
45 | O=C(C[C@@H]1C[C@H]2c3cc(NC(=O)NC4CCCC4)ccc3O[C@H]2[C@@H](CO)O1)NCCN1CCCCC1 | inactive: 1.01
46 | C[C@H](CO)N1C[C@H](C)[C@H](CN(C)C(=O)Nc2cccc3ccccc23)Oc2ccc(NC(=O)Nc3ccc(F)cc3)cc2CC1=O | inactive: 0.99
47 | Cc1ccc(S(=O)(=O)Nc2ccc3c(c2)C(=O)N(C)[C@H]2CC[C@H](CC(=O)NCCc4ccncc4)O[C@@H]2CO3)cc1 | inactive: 0.995
48 | C[C@H](CO)N1C[C@H](C)[C@@H](CN(C)S(=O)(=O)c2cn(C)cn2)OCCCC[C@H](C)Oc2ccc(NS(=O)(=O)c3cccs3)cc2C1=O | inactive: 0.95
49 | C[C@H]1CN([C@@H](C)CO)C(=O)CCCn2cc(nn2)CO[C@H]1CN(C)S(=O)(=O)c1ccc(C#N)cc1 | inactive: 1.03
50 | COCCNC(=O)C[C@@H]1C[C@@H]2c3cc(NS(C)(=O)=O)ccc3O[C@@H]2[C@H](CO)O1 | inactive: 1
51 | CCS(=O)(=O)N1CC[C@]2(CC1)CN(Cc1ccc3c(c1)OCO3)[C@H](CO)c1[nH]c3cc(ccc3c12)OC | inactive: 1.05
52 | C[C@@H]1CCCCO[C@@H](CN(C)S(=O)(=O)c2ccc(F)cc2)[C@@H](C)CN([C@H](C)CO)C(=O)c2cc(NC(=O)Nc3ccc(C(F)(F)F)cc3)ccc2O1 | inactive: 1.05
53 | Cc1noc(C)c1NC(=O)N(C)C[C@@H]1Oc2ccc(NS(=O)(=O)c3cccs3)cc2CC(=O)N([C@@H](C)CO)C[C@@H]1C | inactive: 1
54 | CCCNC(=O)N1C[C@]2(CN(C2)S(=O)(=O)c2ccc(cc2)OC)c2c(n(c3cc(ccc23)OC)C)[C@H]1CO | inactive: 0.993
55 | CC(C)NC(=O)Nc1ccc2c(c1)C(=O)N([C@H](C)CO)C[C@H](C)[C@H](CN(C)S(=O)(=O)c1cccs1)O2 | inactive: 0.98
56 | C=CCNC(=O)[C@@H]1[C@H]2C(=O)O[C@H](c3ccccc3)[C@H](c3ccccc3)N2[C@H](c2ccccc2OCCO)[C@@]12C(=O)Nc1ccc(C#CC3=CCCCC3)cc12 | inactive: 1.06
57 | O=C(O)c1cn(C2CC2)c2cc(N3CCC(O)(COc4ccc(N5C[C@H](CO)OC5=O)cc4F)CC3)c(F)cc2c1=O | active: 0.111
58 | C[C@@H]1CN([C@H](C)CO)C(=O)c2cc(NC(=O)C3CCCCC3)ccc2O[C@@H](C)CCCCO[C@@H]1CN(C)CC1CCCCC1 | inactive: 0.975
59 | C[C@H](CO)N1C[C@H](C)[C@@H](CN(C)Cc2ccc(Oc3ccccc3)cc2)Oc2ccc(NC(=O)Nc3ccc(F)cc3)cc2CC1=O | inactive: 0.974
